Measured values: PubChem BioAssay AID488969 (Vanderbilt High Throughput Screening Facility, 2010)
The full ranking holds about 110,000 compounds; the median of “z-score” is about -0.1, and the highest 2% start at about 2. The list shows a part of the results. The source made the active and inactive calls.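 How the source made its calls: active means z-score in the third read window above 3 or below -3; inactive means the rest.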

target: Metabotropic glutamate receptor 8 (Rattus norvegicus) (UniProt P70579); experiment: mGluR8 Gi/Go-coupled signaling modulation – cell-based, rat, thallium flux, HTS, primary screen (AID 488969); settings: HEK293 rat mGluR8, GIRK (G protein-gated inwardly rectifying potassium channel) thallium flux, FluoZin2; at 10 µM; stronger effect = higher value; submaximal glutamate (EC20) added with thallium
UniProt P70579, sequence (P70579 whole entry, looked up): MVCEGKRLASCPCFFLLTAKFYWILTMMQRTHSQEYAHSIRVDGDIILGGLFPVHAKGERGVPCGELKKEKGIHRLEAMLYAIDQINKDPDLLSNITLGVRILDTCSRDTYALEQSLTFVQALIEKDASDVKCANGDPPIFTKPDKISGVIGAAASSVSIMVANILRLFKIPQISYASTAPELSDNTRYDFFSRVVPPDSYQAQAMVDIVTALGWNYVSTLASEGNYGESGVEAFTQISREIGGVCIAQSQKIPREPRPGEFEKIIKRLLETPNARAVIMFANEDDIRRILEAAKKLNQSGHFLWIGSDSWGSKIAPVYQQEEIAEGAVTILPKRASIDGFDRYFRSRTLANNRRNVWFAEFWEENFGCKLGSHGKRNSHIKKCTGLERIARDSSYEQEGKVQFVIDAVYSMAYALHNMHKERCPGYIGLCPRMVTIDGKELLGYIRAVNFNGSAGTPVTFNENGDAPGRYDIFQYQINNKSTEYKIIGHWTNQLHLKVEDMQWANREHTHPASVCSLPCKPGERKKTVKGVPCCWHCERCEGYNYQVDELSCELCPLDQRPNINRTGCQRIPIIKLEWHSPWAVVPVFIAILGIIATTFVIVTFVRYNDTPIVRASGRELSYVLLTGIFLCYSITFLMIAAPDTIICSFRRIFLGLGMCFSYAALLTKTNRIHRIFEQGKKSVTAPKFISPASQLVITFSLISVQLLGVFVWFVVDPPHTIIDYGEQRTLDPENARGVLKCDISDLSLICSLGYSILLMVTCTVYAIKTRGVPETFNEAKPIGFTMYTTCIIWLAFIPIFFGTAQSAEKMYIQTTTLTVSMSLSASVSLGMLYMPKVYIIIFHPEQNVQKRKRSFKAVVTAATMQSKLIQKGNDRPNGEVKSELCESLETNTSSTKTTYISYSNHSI

Row | SMILES | z-score
1 | COc1ccccc1-c1cc(C(=O)N2CCc3ccccc3C2)c2ccccc2n1 | -0.524
2 | Cn1c(=O)c2[nH]c(CNCc3ccccc3Cl)nc2n(C)c1=O | -0.537
3 | Nc1c(C(=O)O)nnn1Cc1ccccc1 | -0.029
4 | CC1CCCN(C(=O)Nc2cccc(NC(=O)N3CCCC(C)C3C)c2)C1C (stereo not given) | -1.26
5 | Cc1cccc(-n2cc[nH]c2=S)c1 | 0.0616
6 | O=C(NCCCN1CCOCC1)C1CCC(=O)N1C1CCCCC1 (stereo not given) | -0.298
7 | COc1ccc(/C=N/NC(=O)CCn2c3ccccc3c3ccccc32)cc1O | -0.234
8 | Clc1ccc(/C=N/c2c(-c3ccco3)nc3ccccn23)cc1 | 0.302
9 | O=C(CNC(=O)c1cccc(F)c1)N/N=C/c1cc(Br)ccc1OCc1ccccc1 | -0.261
10 | CCn1c(=O)cc(OCC(=O)Nc2cc(C)ccn2)c2ccccc21 | -1.1
11 | Cc1cccc(C)c1OCCCCc1c(C)n[nH]c1C | 1.77
12 | O=C(CCc1ccc(S(=O)(=O)N2CCOCC2)cc1)N/N=C/c1cccc(O)c1 | -0.381
13 | Cc1cc(=O)n2[nH]c(-c3ccccc3)cc2n1 | -0.312
14 | COc1ccc(OC)c(NC(=O)C2C3CCC(O3)C2C(=O)O)c1 (stereo not given) | -0.525
15 | COc1ccc(-c2[nH]c(-c3ccc(SC)cc3)nc2SCC(=O)Nc2nccs2)cc1 | 0.0167
16 | O=C1N=C(N2CCN(c3cccc4ccccc34)CC2)S/C1=C/c1cccs1 | -0.0125
17 | Cc1ccc(C)c(S(=O)(=O)Nc2cc(SCC(=O)O)c(O)c3ccccc23)c1 | -0.346
18 | CCCOC(=O)c1ccc(NC(=O)C(=O)NCC2CCCO2)cc1 (stereo not given) | -0.069
19 | COC(=O)/C(=C(/F)SCC(C)=O)C(F)(F)F | -0.12
20 | Cc1cc2ncn(C(=O)N3CCC(C)CC3)c2cc1C | -0.138
21 | COc1ccc(Cc2nnc(N)s2)cc1 | -0.0129
22 | Clc1cc(Br)ccc1OCCCn1ccnc1 | 0.0482
23 | Cn1c(=O)c2cc(S(=O)(=O)NC(C(=O)NCc3ccccn3)c3ccccc3)ccc2n(C)c1=O (stereo not given) | 0.48
24 | CC1CC(C)CN(CC(C)(C)NS(=O)(=O)c2ccc(Cl)cc2)C1 (stereo not given) | 0.842

Row | SMILES | z-score
25 | CCOC(=O)CC(NC(=O)c1cc2ccccc2oc1=O)c1cccc([N+](=O)[O-])c1 (stereo not given) | -0.356
26 | Cc1c(C(=O)NCC2COc3ccccc3O2)oc2ccc(S(=O)(=O)N3CCOCC3)cc12 (stereo not given) | -0.366
27 | O=C(NCCc1ccccc1)Nc1ccc(Cl)cc1 | 0.558
28 | Cc1nnc2c3ccccc3c(-c3ccc(O)cc3)nn12 | -0.28
29 | CCC(Sc1ncnc2sc(C)c(C)c12)C(=O)OC (stereo not given) | -0.469
30 | COc1ccc(C(C(=O)NC2CCCC2)N(C(=O)c2ccoc2C)c2ccc(C)cc2)cc1 (stereo not given) | -0.798
31 | CSc1cccc(NC(=O)CSc2ncccc2C(=O)Oc2cccc([N+](=O)[O-])c2)c1 | -0.0293
32 | Cc1ccc(Oc2coc3cc(OC(=O)c4cccs4)ccc3c2=O)cc1 | 0.0736
33 | O=C(c1ccc(Br)o1)N1CCN(c2ccc3nnc(-c4ccc(F)cc4)n3n2)CC1 | active: -4.05
34 | Cc1[nH]c2ccccc2c1C(=O)CN1CCCCC1C (stereo not given) | 0.0814
35 | CCC(C)NC(=O)c1ccc(NC(=O)C2CCCO2)cc1 (stereo not given) | -0.155
36 | COc1ccc(N(CC(=O)Nc2ccc(C)cn2)S(=O)(=O)c2c(C)noc2C)cc1 | -0.0762
37 | O=C(CNC(=O)c1ccco1)NCC(=O)OCc1ccc(C(=O)Oc2ccc(Cl)cc2)cc1 | 0.176
38 | CCN(CC)CCCNc1nc(-c2ccccc2)nc2ccccc12 | -0.17
39 | CCOc1cc(-n2cnnn2)c(OCC)cc1NC(=O)c1cc2ccc(N(CC)CC)cc2oc1=O | -1.74
40 | O=C1CC(=O)N(CCNc2ncc(C(F)(F)F)cc2Cl)C(=O)N1 | -0.0792
41 | CNC(=O)N(C1=NCCCCC1)c1ccc(Br)cc1 | -0.628
42 | CCOCCCNC(=S)NCCCNc1nc2cc3c(cc2cc1C#N)OCO3 | -0.17
43 | Cc1cccc(OCC(=O)Nc2ccc3c(C)cc(=O)oc3c2)c1 | -0.14
44 | O=C1c2ccccc2C(=O)N1c1ccc(S(=O)(=O)N2CCN(c3ccccc3)CC2)cc1 | 1.43
45 | O=C(NCCc1ccccc1)c1ccc(Cl)c([N+](=O)[O-])c1 | -0.188
46 | Cc1ccc(CNC(=O)C2CCC(CNc3c(N4CCOCC4)c(=O)c3=O)CC2)cc1 (stereo not given) | 0.00594
47 | CCN1CCN(C(=O)C2c3cc(OC)c(OC)cc3C(=O)N3CCc4ccccc4C23)CC1 (stereo not given) | -0.253
48 | CC(=O)N1C(=S)NC(=O)/C1=C1/C(=O)N(CC(=O)Nc2cccc(C)c2)c2ccccc21 | -0.229

Row | SMILES | z-score
49 | CCn1c(-c2ccc(C)cc2)n[nH]c1=S | -0.192
50 | O=C(CN1C(=O)NC2(CCCCCCC2)C1=O)N1CCN(C(=O)c2ccco2)CC1 | 0.034
51 | O=c1oc2ccccc2cc1-c1nc(-c2ccccc2)no1 | -0.0794
52 | N#CC(c1ccccc1)c1ccc(C(=O)c2ccc(F)cc2)cc1 (stereo not given) | 0.0236
53 | O=C(O)CCc1ccc(-c2cccs2)n1NC(=O)c1ccc(Cl)cc1Cl | 1.18
54 | CCOC(=O)C(Cc1cc(C(C)=O)ccc1OC(C)C)C(=O)OCC | -0.835
55 | CCCCN(CCCC)C1=Nc2ccccc2N/C1=C(/C#N)C(=O)OCC | -0.582
56 | COc1ccc(/C(N)=N/OC(=O)C2CCC(=O)N2S(=O)(=O)c2ccc(C)cc2)cc1 (stereo not given) | 0.116
57 | CCC(=O)Nc1ccc(Br)c(Cl)c1 | 0.106
58 | Cc1nc(N)sc1-c1csc(NCc2ccccc2)n1 | -0.132
59 | Cn1c2c(c(O)c(-c3ccccc3)c1=O)C(=O)CC(C)(C)C2 | -0.119
60 | N#CCCN1CCN(S(=O)(=O)c2ccc(S(=O)(=O)NC3CCCCC3)cc2)CC1 | 0.85
61 | CCOc1ccc(CC(=NCCc2ccccc2)C2=C(O)CC(C)(C)CC2=O)cc1OCC | -0.655
62 | O=C(C1CCC(Cn2c(=S)[nH]c3ccccc3c2=O)CC1)N1CCN(c2ccccc2)CC1 (stereo not given) | 1.21
63 | Clc1ccccc1CSc1nnc(-c2ccccn2)n1Cc1ccco1 | 0.314
64 | Nc1ccc(N2CCN(C(=O)c3cccs3)CC2)cc1 | 0.019
65 | Cc1cc(C(F)(F)F)n(-c2nc(C(=O)Nc3ccccc3Oc3ccccc3)cs2)n1 | -0.474
66 | Cc1cccc2c1N1C(=O)c3c(C(=O)O)cccc3C1CC2C (stereo not given) | -0.265
67 | CCCn1c(CCC(=O)O)ccc1-c1cccs1 | -0.107
68 | O=C(N/N=C/c1ccc(OC(F)F)cc1OC(F)F)c1ccc(Br)cc1 | -0.281
69 | COc1ccccc1-c1cc(C(F)(F)F)nc(N2CCCCC2)n1 | 0.684
70 | CCOC(=O)c1c(CN2CCOCC2)n(-c2ccccc2)c2ccc(O)cc12 | -0.21
